# The list shows a part of the results.
# Experiments:
# Assay in all cases: glycan array binding signal (z-score within array); higher = stronger binding
# Settings in all cases: glycan notation: IUPAC condensed, linker removed
# Gal6S(b1-3)GlcNAc6S = molecular target: Gal6S(b1-3)GlcNAc6S
# How it was run: (§1)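 The binding signal is a Z-score computed within each array. Data were drawn from 3228 arrays in the Consortium for Functional Glycomics database, restricted to those with a known protein sequence. Scores were averaged over arrays of the same protein sequence at different concentrations or buffers, and over linkers, and negative values can be taken as non-binding.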
# Gal6S(b1-4)Glc = molecular target: Gal6S(b1-4)Glc
# How it was run: as §1
# Gal6S(b1-4)Glc6S = molecular target: Gal6S(b1-4)Glc6S
# How it was run: as §1
# Gal6S(b1-4)GlcNAc = molecular target: Gal6S(b1-4)GlcNAc
# How it was run: as §1
# Gal6S(b1-4)GlcNAc6S = molecular target: Gal6S(b1-4)GlcNAc6S
# How it was run: as §1
# GalNAc(a1-3)Gal = molecular target: GalNAc(a1-3)Gal
# How it was run: as §1
# GalNAc(a1-3)GalNAc = molecular target: GalNAc(a1-3)GalNAc
# How it was run: as §1
# [1] = molecular target: GalNAc(a1-3)GalNAc(b1-3)Gal(a1-4)Gal(b1-4)Glc
# How it was run: as §1
# [2] = molecular target: GalNAc(a1-3)GalNAc(b1-3)Gal(a1-4)Gal(b1-4)GlcNAc
# How it was run: as §1
# GalNAc(b1-3)Gal = molecular target: GalNAc(b1-3)Gal
# How it was run: as §1
# [3] = molecular target: GalNAc(b1-3)Gal(a1-4)Gal(b1-4)GlcNAc
# How it was run: as §1
# [4] = molecular target: GalNAc(b1-3)Gal(a1-4)Gal(b1-4)GlcNAc(b1-3)Gal(b1-4)Glc
# How it was run: as §1
# [5] = molecular target: GalNAc(b1-3)Gal(a1-6)Gal(b1-4)Glc
# How it was run: as §1
# GalNAc(b1-3)GalNAc = molecular target: GalNAc(b1-3)GalNAc
# How it was run: as §1
# GalNAc(b1-3)GlcNAc = molecular target: GalNAc(b1-3)GlcNAc
# How it was run: as §1
# GalNAc(b1-4)Gal(b1-4)Glc = molecular target: GalNAc(b1-4)Gal(b1-4)Glc
# How it was run: as §1
# GalNAc(b1-4)GlcNAc = molecular target: GalNAc(b1-4)GlcNAc
# How it was run: as §1
# [6] = molecular target: GalNAc(b1-4)GlcNAc(b1-2)Man
# How it was run: as §1
# [7] = molecular target: GalNAc(b1-4)GlcNAc(b1-2)Man(a1-3)[GalNAc(b1-4)GlcNAc(b1-2)Man(a1-6)]Man(b1-4)GlcNAc(b1-4)GlcNAc
# How it was run: as §1
# [8] = molecular target: GalNAc(b1-4)GlcNAc(b1-3)GalNAc(b1-4)GlcNAc
# How it was run: as §1
# GalNAc(b1-4)GlcNAc6S = molecular target: GalNAc(b1-4)GlcNAc6S
# How it was run: as §1
# GalNAc(b1-6)GalNAc = molecular target: GalNAc(b1-6)GalNAc
# How it was run: as §1
# GalNAc3S(b1-4)GlcNAc = molecular target: GalNAc3S(b1-4)GlcNAc
# How it was run: as §1
# GalNAc3S(b1-4)GlcNAc3S = molecular target: GalNAc3S(b1-4)GlcNAc3S
# How it was run: as §1
# [9] = molecular target: GalNAc3S(b1-4)[Fuc(a1-3)]GlcNAc
# How it was run: as §1
# GalNAc4S6S(b1-4)GlcNAc = molecular target: GalNAc4S6S(b1-4)GlcNAc
# How it was run: as §1
# GalNAc6S(b1-4)GlcNAc = molecular target: GalNAc6S(b1-4)GlcNAc
# How it was run: as §1
# Glc(a1-4)Glc = molecular target: Glc(a1-4)Glc
# How it was run: as §1
# [10] = molecular target: Glc(a1-4)Glc(a1-4)Glc(a1-4)Glc
# How it was run: as §1
# Glc(a1-6)Glc(a1-6)Glc = molecular target: Glc(a1-6)Glc(a1-6)Glc
# How it was run: as §1
# [11] = molecular target: Glc(a1-6)Glc(a1-6)Glc(a1-6)Glc
# How it was run: as §1
# Glc(b1-4)Glc = molecular target: Glc(b1-4)Glc
# How it was run: as §1
# Glc(b1-6)Glc = molecular target: Glc(b1-6)Glc
# How it was run: as §1
# GlcA(b1-3)Gal = molecular target: GlcA(b1-3)Gal
# How it was run: as §1
# GlcA(b1-3)GlcNAc = molecular target: GlcA(b1-3)GlcNAc
# How it was run: as §1
# GlcA(b1-6)Gal = molecular target: GlcA(b1-6)Gal
# How it was run: as §1
# [12] = molecular target: GlcA3S(b1-3)Gal(b1-4)GlcNAc(b1-2)Man
# How it was run: as §1
# [13] = molecular target: GlcA3S(b1-3)Gal(b1-4)GlcNAc(b1-3)Gal(b1-4)Glc
# How it was run: as §1
binder,measurement,setting,value
"CSA (Cytisus scoparius), P29257 (protein) SEELSFSFTKFKTDQKNLILQRDALITPTGKLQLTTVENGKPAAYSLGRALYSTPIHIWDKSTGDEASFATFFSFVISDAPNPSTAATDGLAFFLAPADTQPQSAGGYLGLFEKDSSYNSSNQIVAVEFDTYYNSAWDPQTNPHIGIDVNTIKSKKVSSWGFKNGNVATVLITYQPSSKSLVASLVYPSGQTSDKTSYIISANVDLKATVPEWVRIGFSATTGQTDNYIETHDILSWSFKSKLPATKN",glycan array binding signal (z-score),Gal6S(b1-3)GlcNAc6S,-0.233
same,glycan array binding signal (z-score),Gal6S(b1-4)Glc,-0.15
same,glycan array binding signal (z-score),Gal6S(b1-4)Glc6S,-0.199
same,glycan array binding signal (z-score),Gal6S(b1-4)GlcNAc,-0.203
same,glycan array binding signal (z-score),Gal6S(b1-4)GlcNAc6S,-0.149
same,glycan array binding signal (z-score),GalNAc(a1-3)Gal,3.51
same,glycan array binding signal (z-score),GalNAc(a1-3)GalNAc,-0.083
same,glycan array binding signal (z-score),[1],-0.242
same,glycan array binding signal (z-score),[2],-0.188
same,glycan array binding signal (z-score),GalNAc(b1-3)Gal,2.98
same,glycan array binding signal (z-score),[3],3.35
same,glycan array binding signal (z-score),[4],2.76
same,glycan array binding signal (z-score),[5],4.13
same,glycan array binding signal (z-score),GalNAc(b1-3)GalNAc,-0.132
same,glycan array binding signal (z-score),GalNAc(b1-3)GlcNAc,1.83
same,glycan array binding signal (z-score),GalNAc(b1-4)Gal(b1-4)Glc,0.283
same,glycan array binding signal (z-score),GalNAc(b1-4)GlcNAc,6.99
same,glycan array binding signal (z-score),[6],8.12
same,glycan array binding signal (z-score),[7],3.25
same,glycan array binding signal (z-score),[8],12.4
same,glycan array binding signal (z-score),GalNAc(b1-4)GlcNAc6S,9.73
same,glycan array binding signal (z-score),GalNAc(b1-6)GalNAc,-0.198
same,glycan array binding signal (z-score),GalNAc3S(b1-4)GlcNAc,-0.227
same,glycan array binding signal (z-score),GalNAc3S(b1-4)GlcNAc3S,-0.254
same,glycan array binding signal (z-score),[9],-0.201
same,glycan array binding signal (z-score),GalNAc4S6S(b1-4)GlcNAc,-0.215
same,glycan array binding signal (z-score),GalNAc6S(b1-4)GlcNAc,-0.109
same,glycan array binding signal (z-score),Glc(a1-4)Glc,-0.073
same,glycan array binding signal (z-score),[10],-0.19
same,glycan array binding signal (z-score),Glc(a1-6)Glc(a1-6)Glc,-0.141
same,glycan array binding signal (z-score),[11],-0.171
same,glycan array binding signal (z-score),Glc(b1-4)Glc,-0.218
same,glycan array binding signal (z-score),Glc(b1-6)Glc,-0.177
same,glycan array binding signal (z-score),GlcA(b1-3)Gal,-0.194
same,glycan array binding signal (z-score),GlcA(b1-3)GlcNAc,-0.202
same,glycan array binding signal (z-score),GlcA(b1-6)Gal,-0.043
same,glycan array binding signal (z-score),[12],-0.278
same,glycan array binding signal (z-score),[13],-0.26
